{"source": "PubChem BioAssay AID624417", "about": "(National Center for Advancing Translational Sciences (NCATS), 2012)", "note": "Among all 410,000 compounds or so, about 6,400 (1.6%) were called active. This list was built around the results that the source calls inconclusive (neither active nor inactive); the mix of calls is not that of the screen. Calls come from the whole dose curve; as a rule, active = well fitted inhibition curve with a large enough effect; inconclusive = small, poorly fitted or top-dose-only effect; inactive = no such curve, though single readings can be large or run the other way. No potency is given beside an inconclusive call; the fits are too rough. Potency is the fitted concentration of half-maximal effect; tags give direction and shape of the fitted curve."}
{"molecular_target": "Glucagon-like peptide 1 receptor (Homo sapiens) (UniProt P43220)", "sequence (P43220 whole entry, looked up)": "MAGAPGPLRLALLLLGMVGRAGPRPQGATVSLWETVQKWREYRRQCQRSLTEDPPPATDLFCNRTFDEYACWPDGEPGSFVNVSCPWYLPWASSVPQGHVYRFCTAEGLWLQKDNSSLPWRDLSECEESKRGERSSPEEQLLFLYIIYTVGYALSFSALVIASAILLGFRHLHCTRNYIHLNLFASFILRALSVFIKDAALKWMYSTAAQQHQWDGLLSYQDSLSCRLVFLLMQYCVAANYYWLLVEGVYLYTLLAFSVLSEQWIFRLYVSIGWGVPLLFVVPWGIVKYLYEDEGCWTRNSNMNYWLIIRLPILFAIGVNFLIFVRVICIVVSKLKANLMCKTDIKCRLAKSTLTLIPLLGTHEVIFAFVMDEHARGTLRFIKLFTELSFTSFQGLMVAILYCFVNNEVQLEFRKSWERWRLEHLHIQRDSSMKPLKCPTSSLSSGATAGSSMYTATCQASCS", "assay": "qHTS of GLP-1 Receptor Inverse Agonists (Inhibition Mode); note: nearly all actives have a fitted effect of over 55% in size", "settings": "HEK293 GLP-1R CRE-luciferase, luminescence, 24 h, GLP-1R form is constitutively active; series mostly up to 38.3 µM", "method_in_brief": "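Inverse agonists were sought by their lowering of basal cAMP reporter luciferase output in HEK293 cells stably carrying constitutively active human GLP-1R, after 24 h compound treatment.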"}
{"smiles": "CCOC(=O)C1(CCc2ccccc2)CCN(C(=O)C2=C(C)OCCO2)CC1", "Potency": "inconclusive [inhibitor, single point]"}
{"smiles": "COc1ccc(-c2nc(SCC(=O)NC3CCCCC3)n[nH]2)cc1", "Potency": "inconclusive [inhibitor, full curve, poor fit]"}
{"smiles": "CCN(CC)C(=O)CC(c1cc(OC)c(OC)c(OC)c1)c1c(OC)cc(OC)c2ccc(=O)oc12", "note": "(stereo not drawn)", "Potency": "inactive"}
{"smiles": "Cc1cccc(CCNS(=O)(=O)c2ccc(S(=O)(=O)N3CCCCC3)cc2)c1", "Potency": "inconclusive [inhibitor, single point]"}
{"smiles": "O=c1[nH]c(=O)n(C2C[C@H](O)[C@@H](CO)O2)cc1C(F)(F)F", "note": "(stereo partly drawn)", "Potency": "inconclusive [inhibitor, full curve]"}
{"smiles": "CSc1cccc(NC(=O)/C=C/c2cccc(Cl)c2)c1", "Potency": "inconclusive [inhibitor, partial curve, poor fit]"}
{"smiles": "Clc1ccc(OCCOCCN2CCCCC2)c(Br)c1", "Potency": "inactive"}
{"smiles": "COCCNCC(O)CON=C1c2ccccc2-c2ccccc21", "note": "(stereo not drawn)", "Potency": "inconclusive [inhibitor, single point]"}
{"smiles": "CCOC(=O)c1ccc(NC(=O)c2ccc(CN3CCc4ccccc4C3)cc2)cc1", "Potency": "inconclusive [inhibitor, full curve, poor fit]"}
{"smiles": "COc1ccc(N2C(=O)C(Cc3ccccc3)NC2=S)cc1", "note": "(stereo not drawn)", "Potency": "inactive"}
{"smiles": "CN(CC(O)CON=C1c2ccccc2-c2ccccc21)S(=O)(=O)c1ccc(Br)cc1", "note": "(stereo not drawn)", "Potency": "inconclusive [inhibitor, single point]"}
{"smiles": "CC1Cc2ccccc2N1C(=O)CN1CCN(Cc2ccccc2)CC1", "note": "(stereo not drawn)", "Potency": "inconclusive [inhibitor, full curve, poor fit]"}
{"smiles": "CCN(c1ccc(OC)cc1)c1ncnc2nc[nH]c12", "Potency": "inconclusive [inhibitor, full curve, poor fit]"}
{"smiles": "Cc1cccc(C2C3=C(CCCC3=O)N=C3c4ccccc4C(=O)C32)c1", "note": "(stereo not drawn)", "Potency": "inconclusive [inhibitor, partial curve, poor fit]"}
{"smiles": "CCOC(=O)c1c2c(n(Cc3ccccc3)c1C)C(=O)C(=O)c1ccccc1-2", "Potency": "inconclusive [inhibitor, full curve, poor fit]"}
{"smiles": "O=C(Nc1nnc(C(F)(F)F)s1)C1COc2ccccc2O1", "note": "(stereo not drawn)", "Potency": "inconclusive [inhibitor, single point]"}
{"smiles": "Cc1ccc(OCc2n[nH]c(=S)n2C2CCCCC2)cc1", "Potency": "inconclusive [inhibitor, partial curve, poor fit]"}
{"smiles": "CCN(c1cc(C)cc(C)c1)S(=O)(=O)c1nnc(NC(=O)c2cccc(F)c2)s1", "Potency": "inconclusive [inhibitor, partial curve, poor fit]"}
